“And” between values parts separate entries of the source, which are not always exact repeats. Equal values may be shown once. This is one part of the list. The main result of the screen is listed elsewhere. These columns were measured beside it and carry no call.
What was measured:
Test in all cases: Primary Screen for Target Class Profiling of Small Molecule Inhibitors of Methyltransferases
[1] = biological target: Glycine N-methyltransferase (Homo sapiens) (UniProt Q14749); details: purified enzyme, MTase-Glo SAH luminescence; measured here: GNMT inhibition; at 40 µM; stronger effect = lower value
Summary of the method: (§1)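 Each enzyme was assayed with SAM and its substrate. SAH formation detected by MTase-Glo luminescence; single-point 40 uM screen[…].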

[2] = biological target: Guanidinoacetate N-methyltransferase (Homo sapiens) (UniProt Q14353); details: purified enzyme, MTase-Glo SAH luminescence; measured here: GAMT inhibition; at 40 µM; stronger effect = lower value
Summary of the method: as §1

[3] = biological target: Histamine N-methyltransferase (Homo sapiens) (UniProt P50135); details: purified enzyme, MTase-Glo SAH luminescence; measured here: HNMT inhibition; at 40 µM; stronger effect = lower value
Summary of the method: as §1

[4] = biological target: Nicotinamide N-methyltransferase (Homo sapiens) (UniProt P40261); details: purified enzyme, MTase-Glo SAH luminescence; measured here: NNMT inhibition; at 40 µM; stronger effect = lower value
Summary of the method: as §1

[5] = biological target: Phenylethanolamine N-methyltransferase (Homo sapiens) (UniProt P11086); details: purified enzyme, MTase-Glo SAH luminescence; measured here: PNMT inhibition; at 40 µM; stronger effect = lower value
Summary of the method: as §1
On the % scale 0 is the no-effect control and ±100 the full control effect.

| SMILES | activity change, negative = inhibition [1] | activity change, negative = inhibition [2] | activity change, negative = inhibition [3] | activity change, negative = inhibition [4] | activity change, negative = inhibition [5] |
| --- | --- | --- | --- | --- | --- |
| C1CC2(CCN1)CC(OCC1CC1)CCO2 (stereo not given) | -2.38% | -2.15% | -1.31% | -4.21% | -2.31% |
| COc1ccc(CNC(=O)C2(C)Cn3cnc(C(=O)NCc4ccc(F)cc4)c3C(=O)N2C2CC2)cc1 (stereo not given) | 0.107% | 0% | 3.49% | -1.34% | 4.51% |
| O=C(C1CC=CC1)N1C[C@@H](COc2cccnc2)[C@H](c2ccccn2)C1 | -8.9% | -5.24% | -3.87% | -11.3% | -11.8% |
| Cc1ccc(-c2cc(-c3ccncc3)c3cncn3c2)cn1 | -40.6% | -13.1% | -17.6% | -32.1% | -18.1% |
| CCOc1ccc(C(=O)Cn2nc3n(C(C)C)c(=O)c4ccc(C(=O)NC(C)CC)cc4n3c2=O)cc1 (stereo not given) | 5.9% | 5.93% | 5.79% | 0.123% | 3.55% |
| COc1cccc(NC(=O)CSc2nnc3n(CC(C)C)c(=O)c4cc(F)ccc4n23)c1 | 0.42% | 0% | 7.51% | -1.26% | 2.88% |
| CCc1cc2c(cc3n2CC(C)(C(=O)NC2CCCCCC2)N(Cc2cccc(Cl)c2)C3=O)s1 (stereo not given) | 0.768% | 0.152% | 3.05% | -0.529% | -0.621% |
| CC1(CO)CC2C(O)C(=O)C3(CO)CC3(C)C2C1 (stereo not given) | 0% | 9.64% | 6.74% | -5.59% | 3.44% |
| CC(=O)N1CCCN(Cc2nnc(C(=O)N3CCC[C@@H]3c3cccc(F)c3)n2-c2cccnc2)CC1 | -1.87% | -2.22% | -0.332% | -8.21% | -3.31% |
| CN(Cc1ccccc1C(F)(F)F)CC1CCCCC1 | -6.08% | -5.14% | -1.97% | -8.36% | 2.88% |
| CCCCN1C(=O)c2cc(C(=O)NCc3cccs3)nn2CC1(C)C(=O)NC1CCCC1 (stereo not given) | 8.75% | 0.915% | -3.6% | 7.63% | 7.2% |
| CS(=O)(=O)N1Cc2ccccc2CC2(CCN(Cc3ccccn3)C2)C1 (stereo not given) | -2.93% | -0.691% | -4.74% | 0.236% | 1.7% |
| O=C(c1ccc(Cl)cc1)N1CC(CO)C2(CCNCC2)C1 (stereo not given) | -5.62% | -6.21% | -2.23% | -6.04% | -4.04% |
| Cc1cccc(CC(=O)N[C@@H]2CN(c3ccncn3)C[C@H]2CO)c1 | -3.72% | 0.281% | -2.76% | -7.64% | -5.61% |
| CCC(C)(C)C(=O)NCCc1noc(-c2ccccc2)n1 | 0.307% | 0.711% | 2.73% | -2.29% | -2.02% |
| CC1(COc2ccccc2)COc2ccc(C(=O)N3CCN(c4ccccn4)CC3)cc2N1 (stereo not given) | -3.69% | -1.23% | -2.1% | -2.66% | -0.783% |
| CC(C)c1nccn1CCCNC(=O)c1ccc(-c2cccc(F)c2)nc1 | -2.95% | -1.06% | -60.6% | -9.57% | -19.1% |
| NCc1ccc(OCCCc2sc(-c3ccc4c(c3)/C(=N/Nc3nc5ccccc5s3)CCC4)nc2C(=O)O)cc1 | -17.9% | -10.8% | -13.1% | -33.4% | -22.3% |
| O=C1CN(Cc2cc3cc4c(cc3[nH]c2=O)OCO4)CCCN1 | -6.83% | -5.84% | -2.85% | -9.89% | -7.52% |
| COCCOC1CCN(C(=O)c2[nH]nc3c2COc2ccccc2-3)CC1 | -31.6% | -6.19% | -2.93% | -10.4% | -9.14% |

| SMILES | activity change, negative = inhibition [1] | activity change, negative = inhibition [2] | activity change, negative = inhibition [3] | activity change, negative = inhibition [4] | activity change, negative = inhibition [5] |
| --- | --- | --- | --- | --- | --- |
| CC1(C(=O)NCc2ccccc2)Cn2c(cc3ccccc32)C(=O)N1CCCc1ccccc1 (stereo not given) | -7.13% | -0.989% | -6.37% | -13.3% | -6.9% |
| CC(=O)c1c(OCCN2CCCCC2)c(OCCC(C)c2ccc(F)cc2)c2oc(C)nc2c1C (stereo not given) | -1.76% | 5.2% | -28.4% | -30% | -6.84% |
| NC(=O)C1CCN(c2nc3c(S(=O)(=O)c4ccccc4)nnn3c3ccccc23)CC1 | -8.03% | -2.88% | 1.31% | -7.03% | -5.54% |
| CC(C)=CCC(O)[C@](C)(O)C1[C@H](O)C[C@@]2(C)C3CC=C4C(C[C@H](O)[C@@H](O[C@@H]5O[C@H](CO)[C@@H](O)[C@H](O)[C@H]5O)C4(C)C)[C@]3(C)C(=O)C[C@]12C (stereo not given in full) | 4.14% | 5.83% | 9.29% | -7.96% | 6.94% |
| C/C1=C/CCC2=CC(OC2=O)C(C)(C)/C=C/C1=O (stereo not given) | -3.13% | -3.93% | 8.3% | -14.4% | -9.73% |
| C[C@@H](Oc1cc(-c2cnn(C3CCNCC3)c2)cnc1N)c1c(Cl)ccc(F)c1Cl | -36.2% and -57.3% and -28.5% | -8.99% and -31.7% | -59.7% and -64.1% and -25.9% | -70.4% and -73.3% and -31.9% | -29% and -54.9% and 4.43% |
| O=c1c2ccccc2n2c(=O)n(Cc3ccccc3F)nc2n1Cc1ccc(F)cc1 | 7.67% | 0.728% | 11.6% | 0.611% | 5.93% |
| CCOc1ccc(C(=O)Cn2nc3n(CC(C)C)c(=O)c4ccccc4n3c2=O)cc1 | 2.64% | 5.66% | 6.48% | -3.72% | 2.18% |
| N[C@@H](CCNCc1ccc(Cl)cc1)C(=O)N1CCCCC1 | 4.76% | 7.75% | 10.8% | -7.7% | 5.56% |
| COC(=O)C(Cc1c[nH]c2ccccc12)NC(=O)c1ccccc1Br (stereo not given) | -0.128% | 1.15% | -30.2% | 7.85% | 0.832% |
| CC1Oc2ccc(NC(=O)c3cccs3)cc2CN(CCOc2ccccc2)C1=O (stereo not given) | -6.69% | -6.69% | -1.83% | -7.91% | -2.49% |
| COc1cccc(C(=O)N2CC(=O)N(Cc3ccc(Cl)cc3)CC(O)C2)c1 (stereo not given) | -0.654% | 1.31% | 2.48% | -4.39% | -6.24% |
| CC1(C(=O)NC2CCCC2)Cn2c(ccc2-c2ccco2)C(=O)N1CCCN1CCOCC1 (stereo not given) | 5.26% | 2.36% | 7.77% | 13.6% | 0.976% |
| O=c1c2ccccc2n2c(-c3cccc(F)c3)nnc2n1Cc1ccc(F)cc1 | -5.64% | 2.82% | 3.65% | 2.07% | -1.05% |
| COc1ccc(N2C(=O)c3ccc(-c4ccco4)n3CC2(C)C(=O)NC2CCCC2)cc1OC (stereo not given) | 0.677% | 0% | 9.96% | 7.9% | 3.02% |
| N#Cc1ccccc1CN1CCN(Cc2ccccc2)CC(O)C1 (stereo not given) | -2.82% | -0.331% | -3.81% | -5.48% | 3.71% |
| CC1=NOC(C(=O)N2CCCn3nc(C(=O)NCCN(C)C)cc3C2)C1 (stereo not given) | 0.756% | -1.6% | 0.862% | 3.45% | 0.703% |
| CSc1ncc(CN2CCC(n3nccc3NC(=O)Cc3ccccc3)CC2)cn1 | -0.737% | -0.567% | 1.12% | -5.71% | 15.6% |
| CCC1c2ccc(C)n2CCN1C(=O)Nc1cccc(SC)c1 (stereo not given) | -9.6% | 1.63% | -12.5% | -17.2% | -13.1% |
| N#Cc1cccc(C(=O)Nc2cc(-c3ccccc3)nn2-c2ccccc2)c1 | -0.901% | -3.48% | 6.7% | -17.4% | -1.83% |

— PubChem BioAssay AID1745853 (National Center for Advancing Translational Sciences (NCATS), 2022)
